Test results reported in US20240182571A1 (OSE IMMUNOTHERAPEUTICS, published 2024).
Values belong to the binder of their own block, whether it stands above or below them.

Legend:
[1] = biological target: T1, CD127 (immobilized to the sensor chip) (UniProt P16871 21-239, limits assumed); assay: Biacore, CD127 immobilised to the sensor chip, bifunctional molecule at escalating doses
T1 construct: Reagent of the Biacore assay; Nothing is said about the construct; also called CD127 receptor; IL-7R
T1 sequence (looked up): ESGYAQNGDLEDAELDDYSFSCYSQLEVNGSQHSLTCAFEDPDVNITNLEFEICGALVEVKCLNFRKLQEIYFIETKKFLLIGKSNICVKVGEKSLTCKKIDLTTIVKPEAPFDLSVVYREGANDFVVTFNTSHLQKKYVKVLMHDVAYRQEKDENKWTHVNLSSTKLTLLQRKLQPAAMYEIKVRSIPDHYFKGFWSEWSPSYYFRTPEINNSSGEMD

[2] = biological target: T2, Recombinant hPD1 (Sino Biologicals, reference 10377-H08H) (human, UniProt Q15116 in part); assay: ELISA, recombinant human PD-1 immobilised, anti-human Fc peroxidase
T2 construct: Bought reagent, immobilised on plastic; also called Human recombinant PD-1; rPD1

[3] = biological target: T3, biotinylated Human PD1 (AcroBiosystems, reference EP-101) (human, UniProt Q15116 in part, limits assumed, biotinylated); assay: competitive ELISA, PD-L1 immobilised, antibody mixed with biotinylated human PD-1; PD1/PDL1 antagonist activity
T3 construct: also called biotinylated recombinant human PD-1; Biotin-PD-1Fc

B2: anti PD-1*2 IL7 wild type*2 (other)
heavy: QIQLVQSGSELKKPGASVKVSCKASGYTFTHYAMNWVRQAPGQGLEWMGWINTNTGEPTYAQGFTGRFVFSLDTSVSTAYLQISSLKAEDTAVYYCAREREPGMDNWGQGTLVTVSSASTKGPSVFPLAPSSKSTSGGTAALGCLVKDYFPEPVTVSWNSGALTSGVHTFPAVLQSSGLYSLSSVVTVPSSSLGTQTYICNVNHKPSNTKVDKKV[human IgG1 Fc with changes not listed]GGGGSGGGGSGGGGSDCDIEGKDGKQYESVLMVSIDQLLDSMKEIGSNCLNNEFNFFKRHICDANKEGMFLFRAARKLRQFLKMNSTGDFDLHLLKVSEGTTILLNCTGQVKGRKPAALGEAQPTKSLEENKSLKEQKKLNDLCFLKRLLQEIKTCWNKILMGTKEH
light: DVVMTQSPLSLPVTLGQPASISCRSSQSLVHANTNTYLEWYQQRPGQSPRLLIYKVSNRFSGVPDRFSGSGSGTDFTLKISRVEAEDVGVYYCFQGTHVPNTFGQGTKLEIKRTVAAPSVFIFPPSDEQLKSGTASVVCLLNNFYPREAKVQWKVDNALQSGNSQESVTEQDSKDSTYSLSSTLTLSKADYEKHKVYACEVTHQGLSSPVTKSFNRGEC
notes: Control corresponding to construction 1 but with wild type IL-7; also called antiPD-1*2 IL-7 WT*2; BICKI-IL-7 WT
- Kd [1]: 0.87 nM

B3: anti PD-1*1 IL-7 W142H*2 (other)
chain: DKTHTCPPCPAPELLGGPSVFLFPPKPKDTLMISRTPEVTCVVVDVSHEDPEVKFNWYVDGVEVHNAKTKPREEQYASTYRVVSVLTVLHQDWLNGKEYKCKVSNKALPAPIEKTISKAKGQPREPQVYTLPPCRDELTKNQVSLWCLVKGFYPSDIAVEWESNGQPENNYKTTPPVLDSDGSFFLYSKLTVDKSRWQQGNVFSCSVMHEALHNHYTQKSLSLSPGKGGGGSGGGGSGGGGSDCDIEGKDGKQYESVLMVSIDQLLDSMKEIGSNCLNNEFNFFKRHICDANKEGMFLFRAARKLRQFLKMNSTGDFDLHLLKVSEGTTILLNCTGQVKGRKPAALGEAQPTKSLEENKSLKEQKKLNDLCFLKRLLQEIKTCHNKILMGTKEH
heavy: QIQLVQSGSELKKPGASVKVSCKASGYTFTHYAMNWVRQAPGQGLEWMGWINTNTGEPTYAQGFTGRFVFSLDTSVSTAYLQISSLKAEDTAVYYCAREREPGMDNWGQGTLVTVSSASTKGPSVFPLAPSSKSTSGGTAALGCLVKDYFPEPVTVSWNSGALTSGVHTFPAVLQSSGLYSLSSVVTVPSSSLGTQTYICNVNHKPSNTKVDKKV[human IgG1 Fc with changes not listed]GGGGSGGGGSGGGGSDCDIEGKDGKQYESVLMVSIDQLLDSMKEIGSNCLNNEFNFFKRHICDANKEGMFLFRAARKLRQFLKMNSTGDFDLHLLKVSEGTTILLNCTGQVKGRKPAALGEAQPTKSLEENKSLKEQKKLNDLCFLKRLLQEIKTCHNKILMGTKEH
light: B2 light
notes: Bifunctional antibody-cytokine fusion: one anti PD-1 arm and two IL-7 W142H; IgG1 N298A, knob-into-hole; also called construction 4; anti PD-1*1/IL-7v*2
- EC50 [2]: 0.086 nM

More lines, now with the values ahead:

- Kd [1]: 45.2 nM
- EC50 [2]: 0.026 nM
- EC50 [3]: 2.17 nM
B1: anti PD-1*2 IL-7 W142H*1 (other)
heavy 1: QIQLVQSGSELKKPGASVKVSCKASGYTFTHYAMNWVRQAPGQGLEWMGWINTNTGEPTYAQGFTGRFVFSLDTSVSTAYLQISSLKAEDTAVYYCAREREPGMDNWGQGTLVTVSSASTKGPSVFPLAPSSKSTSGGTAALGCLVKDYFPEPVTVSWNSGALTSGVHTFPAVLQSSGLYSLSSVVTVPSSSLGTQTYICNVNHKPSNTKVDKKVEPKSCDKTHTCPPCPAPELLGGPSVFLFPPKPKDTLMISRTPEVTCVVVDVSHEDPEVKFNWYVDGVEVHNAKTKPREEQYASTYRVVSVLTVLHQDWLNGKEYKCKVSNKALPAPIEKTISKAKGQPREPQVYTLPPCRDELTKNQVSLWCLVKGFYPSDIAVEWESNGQPENNYKTTPPVLDSDGSFFLYSKLTVDKSRWQQGNVFSCSVMHEALHNHYTQKSLSLSPGK
heavy 2: QIQLVQSGSELKKPGASVKVSCKASGYTFTHYAMNWVRQAPGQGLEWMGWINTNTGEPTYAQGFTGRFVFSLDTSVSTAYLQISSLKAEDTAVYYCAREREPGMDNWGQGTLVTVSSASTKGPSVFPLAPSSKSTSGGTAALGCLVKDYFPEPVTVSWNSGALTSGVHTFPAVLQSSGLYSLSSVVTVPSSSLGTQTYICNVNHKPSNTKVDKKV[human IgG1 Fc with changes not listed]GGGGSGGGGSGGGGSDCDIEGKDGKQYESVLMVSIDQLLDSMKEIGSNCLNNEFNFFKRHICDANKEGMFLFRAARKLRQFLKMNSTGDFDLHLLKVSEGTTILLNCTGQVKGRKPAALGEAQPTKSLEENKSLKEQKKLNDLCFLKRLLQEIKTCHNKILMGTKEH
light: B2 light
notes: Bifunctional antibody-cytokine fusion: two anti PD-1 arms and one IL-7 W142H; IgG1 N298A, knob on chain A and hole on chain B. Chain B carries the IL-7 variant; also called construction 2; anti PD-1*2/IL-7v*1

- Kd [1]: 37.3 nM
- EC50 [2]: 0.034 nM
- EC50 [3]: 2.79 nM
B4: anti PD-1*2 IL-7 W142H*2 (other)
heavy: QIQLVQSGSELKKPGASVKVSCKASGYTFTHYAMNWVRQAPGQGLEWMGWINTNTGEPTYAQGFTGRFVFSLDTSVSTAYLQISSLKAEDTAVYYCAREREPGMDNWGQGTLVTVSSASTKGPSVFPLAPSSKSTSGGTAALGCLVKDYFPEPVTVSWNSGALTSGVHTFPAVLQSSGLYSLSSVVTVPSSSLGTQTYICNVNHKPSNTKVDKKV[human IgG1 Fc with changes not listed]GGGGSGGGGSGGGGSDCDIEGKDGKQYESVLMVSIDQLLDSMKEIGSNCLNNEFNFFKRHICDANKEGMFLFRAARKLRQFLKMNSTGDFDLHLLKVSEGTTILLNCTGQVKGRKPAALGEAQPTKSLEENKSLKEQKKLNDLCFLKRLLQEIKTCHNKILMGTKEH
light: B2 light
notes: also called construction 1; BICKI-IL-7 W142H
